#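 Exposure lasted 48 hours, with cells grown in 96-well plates and compounds tested at five concentrations. Here, GI50 denotes the concentration required for 50% inhibition of growth. TGI marks complete inhibition of growth.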 Numbered stars: 1 amine (or outer) side, 2 acyl side, 3 side chain; on linkers, the order of the positions; unused ones are H or OH. Bridge positions count the residues as written; N and C are the ends. Square brackets hold non-standard residues; d marks the D form. Peptide text beside a SMILES is read from it. * marks the point of attachment. ξ: configuration not given here. X31 = O=C(C(CCCCNO[*:3])N[*:1])[*:2]; Fmoc = O=C(OCC1c2ccccc2-c2ccccc21)*; ξW = NC(Cc1c[nH]c2ccccc12)C(=O)O; ξP = O=C(O)C1CCCN1
# System: NCI-H322M lung
# Assay: growth of human tumour cells (NCI), 48 h
Compound,TGI [µM],GI50 [µM]
COC(=O)C(/C(=N/NC(N)=O)C(=O)Nc1ccc(C)cc1)c1nc2ccc([N+](=O)[O-])cc2[nH]c1=O (configuration not stated),> 100,–
CC(C)OP(=O)(OC(C)C)c1c(Nc2ccccc2)n[nH]c1N,> 100,–
COc1cccc(-c2cc(=O)c3ccccc3o2)c1N,> 100,–
CCOC(=O)c1csc(NC(=O)CCN(CC)CC)n1,> 100,–
O=C(Nc1ccc(N2CCNCC2)cc1)c1[nH]ncc1Nc1cc(Oc2ccccc2)ncn1,5.87,2.03
Cc1ccc(C)c(NC(=O)CC/C(=N\NC(=O)C(=O)NN)C(C)C(=O)c2ccc(O)cc2)c1 (configuration not stated),> 100,–
O=NN(Cc1ccc(Cl)cc1)C(C(=O)O)c1ccccc1 (configuration not stated),> 100,–
N#CSCC1CC(O)(c2ccccc2)C(c2ccccc2)C(c2ccc(Cl)cc2)O1 (configuration not stated),7.77,2.24
Cn1cc(-c2cnc3ccc(NC(=O)Nc4ccc(F)c(Br)c4)cc3n2)cn1,4.46,1.84
COc1ccccc1Nc1nc(N)nc(N)c1N=O,> 100,–
C/C(CCOC1CCCCO1)=C(\C)[Si](C)(C)C (configuration not stated),> 100,–
Cc1c(F)c(N)c2c(=O)cc(-c3ccc(NC(=O)CN(C)C)c(F)c3)oc2c1F,> 100,–
CC1=C(C(=O)Nc2ccc3[nH]ncc3c2)C(c2ccc3ccccc3c2)CC(=O)N1 (configuration not stated),> 25,> 25
O=C1/C(=C/c2ccccc2)N=C(c2ccccc2)N1n1c(-c2ccccc2)nc2ccccc2c1=O,> 100,–
C[C@@]12[C@H]3CC[C@@H]1[C@H](O)C(=O)N2CC3,> 100,–
CC(CN1c2ccccc2Sc2ccccc21)N(C)C (configuration not stated),36.2,–
Cc1ccc2c(c1)C(=O)/C(=C/c1ncc([N+](=O)[O-])n1C)O2,46.2,10.2
O=C1/C(=C/c2ccc(Cl)cc2Cl)N=C(c2ccccc2)N1Cc1ccco1,55.7,18.9
CCNCCNc1cc(-c2ccc(C(=O)OC)cc2)c(C#N)c2nc3ccccc3n12,> 100,15.9
CC(C)(C)c1ccc2c(c1)CNCCNCc1cc(C(C)(C)C)ccc1OCC1(CO2)COc2ccc(C(C)(C)C)cc2CNCCNCc2cc(C(C)(C)C)ccc2OC1,3.23,–
CCCCC/C(C=C(C#N)C#N)=C/c1ccccc1,21.4,5.09
Nc1cc(CO)cc(Nc2nc3ccc(Cl)cc3c3[nH]c4ccccc4c23)c1,22.1,–
S=C(N/N=C\C=N/NC(=S)N1CCCCC1)N1CCCCC1,> 100,–
CNC(=O)OCc1c(COC(=O)NC)c(-c2ccc(Cl)c(Cl)c2)n2c1SCC2,48,–
CCCCC(=O)OCC1OC(n2cnc3c(=S)nc[nH]c32)C(OC(=O)CCCC)C1OC(=O)CCCC (configuration not stated),> 100,4.84

Compound,TGI [µM],GI50 [µM]
COC(=O)C(CCC#N)(CCC#N)C(=O)OC,> 100,–
NC(=O)N/N=C(\Cc1nc2ccc(Cl)cc2[nH]c1=O)C(=O)Nc1ccc(Cl)cc1Cl,> 100,–
CCOP(=O)(OCC)/C(C#N)=C/c1cnc(-c2ccccc2)[nH]1,> 100,–
CN(C)CCCOc1nc2c(c(=O)n(C)c(=O)n2C)n1C (tested in a mixture with another compound),> 100,–
O=C1CNCCCN2CCN(CCCNCC(=O)Nc3ccc(cc3)S(=O)(=O)c3ccc(cc3)NC(=O)CNCCCN3CCN(CCCNCC(=O)Nc4ccc(cc4)S(=O)(=O)c4ccc(cc4)N1)CC3)CC2,> 100,–
COc1cnc2cc(C(=O)O)c3c([N+](=O)[O-])cccc3c2c1,> 100,–
COc1ccc2[nH]c3c(C)c4c(c(C)c3c2c1)CN(C)CC4,74.6,–
O=C(O)CSc1nnc(COc2ccc(Cl)cc2)n1-c1ccccc1,> 100,–
O=C(Nc1ccc(Br)cc1)c1c(-c2ccccc2)c2ccc(O)cc2oc1=O,> 10,–
COC(=O)C[C@H]1CCC2(OCCO2)[C@]1(C)C(=O)OC,> 100,–
COc1ccc(/C(=C2\O[C@@H]([C@H]3COC(C)(C)O3)[C@H]3OC(C)(C)O[C@@H]23)c2cc(OC)c(OC)c(OC)c2)cc1O,> 100,6.58
CC12CC[C@@H](C(C)(C)O)C1[C@@H](O)CC1(C)C2CCC2[C@@]3(C)CC[C@H](O)C(C)(C)C3C(O)C[C@]21C (some centres not stated),33.2,–
CSc1cc(N=Nc2nc3ccccc3s2)c2ccccc2c1O,25.8,13.3
CN(C(=O)C12C3C4C1C1C2C3C41C(=O)C(C)(C)C)C(C)(C)C (configuration not stated),> 100,–
N#C/C(=C1C=C/C(=N/O)C(Br)=C/1)c1ccccc1,> 100,3.97
O=C1c2cccc(NCCN=Cc3cc(O)ccc3O)c2C(=O)c2c(NCCN=Cc3cc(O)ccc3O)cccc21,3.35,1.05
OCCC1(O)CCC(O)CC1 (configuration not stated),> 100,–
N=C1CSC2=NC3=C(CCC/C3=C\c3ccccc3)C(c3ccccc3)N12 (configuration not stated),22.6,–
O=c1[nH]n2c(=O)cc[nH]c2c1-c1nnns1,> 100,–
Cc1cc(N(CCOS(C)(=O)=O)CCOS(C)(=O)=O)ccc1C=Nc1ccc(-c2nc(Cc3ccccc3)sc2C)cc1,18.6,–
CCN1c2ccccc2-n2c(C)nnc2-c2c1n[nH]c2-c1ccccc1,> 100,–
Nc1ccn(C2O[C@H](CO)[C@@H](O)[C@@H]2O)c(=O)n1 (some centres not stated),> 100,–
CCCCN(CCCC)C(=O)C(=O)C(C#N)c1ccc(C)cc1 (configuration not stated),> 100,–
COCOC1/C=C/CCCCC2=C(C)C=C(C1)O2 (configuration not stated),> 100,–
CC1OC(n2cc(F)c(=O)[nH]c2=O)CCC1O (configuration not stated),> 100,–

Compound,TGI [µM],GI50 [µM]
Cc1nnc2n1N=C(c1cc(F)c(Cl)cc1Cl)/C(=C/c1ccc(Cl)cc1)S2,> 100,–
C=C(C)C12CC(COC(=O)c3ccccc3)C34OC5(OC1C3C1OC1(CO)C(O)C1(O)C(OC(=O)c3ccccc3)C(C)C(C(C)CCCCCCC5O)C14)O2 (configuration not stated),> 100,–
O=C(c1ccco1)c1nc2ccc(C(F)(F)F)cc2[n+]([O-])c1C(F)(F)F,> 100,58.4
CC[CH2][Pb]([CH2]CC)([CH2]CC)[O]C(=O)C(F)(F)F,0.517,0.201
C=C(C(=O)C(=O)Oc1ccc(Cl)cc1)C(=O)c1ccc(C)cc1,> 100,–
OCC1CCCCCCCCCCC12SCCCS2 (configuration not stated),> 100,–
CC(=O)Nc1ccccc1Sc1ccccc1,> 100,–
CC(C)(C)C1=C(Br)C(Br)(C(C)(C)C)OP1(=O)c1ccccc1 (configuration not stated),> 100,–
COC(=O)C1(C(=O)OC)CC2=C(S(=O)(=O)c3ccccc3)C[C@H](S(=O)(=O)c3ccccc3)[C@H]2C1,> 100,–
CN(C)CCNc1cc(-c2ccccc2)nc2ccccc12,34.9,7.2
COc1ccc(C2CC(c3c(O)ccc4ccccc34)=NN2c2ccc([N+](=O)[O-])cc2[N+](=O)[O-])cc1OC (configuration not stated),> 100,–
OCc1ccc2[n+](c1)CCC1c3ccccc3NC21 (configuration not stated),> 300,–
O=C1CCC[C@@H]2NC[C@@H](c3ccc4c(c3)OCO4)[C@H]12,> 25,–
CCOC(=O)NC(=O)c1cn(C2OC(COC(=O)CCCCCCCCC(=O)OCC3OC(n4cc(C(=O)NC(=O)OCC)c(=O)[nH]c4=O)C(O)C3O)C(O)C2O)c(=O)[nH]c1=O (configuration not stated),> 100,–
CN(C)/N=N/c1nc2c(c(=O)n(C)c(=O)n2C)n1C,> 100,–
O=C(/C=C/c1ccc(O)c([N+](=O)[O-])c1)CC(=O)/C=C/c1ccc(O)c([N+](=O)[O-])c1,> 100,–
NC(=O)CNC(=O)C1CCCN1C(=O)C1CCCCNOC(=O)CC[C@@H](NC(=O)OCC2c3ccccc3-c3ccccc32)C(=O)NC(Cc2c[nH]c3ccccc23)C(=O)N1 (some centres not stated) (Fmoc-[dE][ξW][X31][ξP]G-NH2; ester 1-3),> 100,–
CC(O[Si](c1ccccc1)(c1ccccc1)C(C)(C)C)[C@H](NC(=O)OC(C)(C)C)C(=O)O[Si](c1ccccc1)(c1ccccc1)C(C)(C)C (some centres not stated),25.1,–
COc1cc2c(cc1OC)C1=Cc3cc(OC)c(OC)cc3C(C)N1C=C2 (configuration not stated),> 100,–
CCCCCCCCCCCC(=O)CC(=O)c1c(O)cccc1O,45.2,–
N#CC(C(=N/O)/C(=N/O)C(C#N)c1ccc(Cl)cc1)c1ccc(Cl)cc1 (configuration not stated),> 100,–
CC1=C(O)C(=O)[C@@H]2O[C@@H]2C1=O,78.1,–
Cc1cc2c(cc1C)[n+](=O)c(C(=O)CC(=O)C(=O)Nc1c(C(C)C)cccc1C(C)C)c(C)n2[O-],> 100,–
Cc1nc2cccc([N+](=O)[O-])c2c(NCCCN(C)C)c1C,> 58.6,–
CCOC(=O)CCc1cc(=O)oc2cc(O)cc(O)c12,> 100,–

Compound,TGI [µM],GI50 [µM]
c1ccc2c(c1)OC(N1CCCC1)c1cnc(N3CCCC3)nc1-2 (configuration not stated),> 100,–
O=C(NNC(=S)Nc1ccc(Cl)cc1)c1cc(-c2ccccc2)nc2ccccc12,19,–
COc1cc(O)c(/C=N/N=C(\N)NO)c(OC)c1,> 10,–
CC1(Cl)C(=O)NC(=O)N(C2CC(N=[N+]=[N-])C(CO)O2)C1N=[N+]=[N-] (configuration not stated),> 100,–
Cc1nc(-c2ccc([N+](=O)[O-])cc2)cn2c1nc1ccccc12,> 100,–
NC(N)=NS(=O)(=O)c1ccc(NCc2c3ccccc3[n+]([O-])c3ccccc23)cc1,> 100,–
Cc1ccc(S(=O)(=O)N(CCOc2ccc(/C(N)=N/Cl)cc2)CCOc2ccc(/C(N)=N\Cl)cc2)cc1,> 100,67.9
O=C(O)c1cc2c(cc1CC(Cc1ccc3c(c1)CCC3)C(=O)O)CCC2 (configuration not stated),> 100,–
O=[N+]([O-])/C=C\c1ccc(Cl)c(Cl)c1,5.71,1.85
C[N+]1=C2[B-](C(C)(C)C)=[N+](C(C)(C)C)[B-]2(C(C)(C)C)[N+](C)=C2[B-](C(C)(C)C)=[N+](C(C)(C)C)[B-]21C(C)(C)C (configuration not stated),> 100,–
CCCCNC1=C(C(=O)OCC)C(=O)CO1,> 100,–
CN1C(=O)N(c2ccccc2)C2(CCN(CC3COc4ccccc4O3)CC2)C1=O (configuration not stated),> 100,–
COC(=O)C1C(C(=O)OC)N(Cc2ccccc2)C(=O)N1Cc1ccccc1 (configuration not stated),> 100,–
O=C(O)Cn1ccc(=O)c2ccc([N+](=O)[O-])cc21,> 100,–
Cc1c(-c2nc3ccccc3[nH]2)c(=O)n(-c2ccccc2)n1C,> 100,–
COc1ccccc1C1C(C(=O)Nc2ccccc2)=C(C)NC(C)=C1C(=O)Nc1ccccc1,> 100,–
O=C(O)CCCCC(CCSCc1ccccc1)SCc1ccccc1 (configuration not stated),> 100,72.2
CCCCCCCCCCCCCC(=O)OC1CC(=O)OC1CO (configuration not stated),> 100,–
CC(=O)OCC(C)C1=C(O)C(=O)C2(C)C/C=C(/C)CC/C=C(\C)CCC(O)C(C)CCC12 (configuration not stated),30.5,–
COC(=O)C(=O)C(C(=O)C=C(C)C)C(=O)C(=O)Nc1cc(C(F)(F)F)ccc1Cl (configuration not stated),> 100,–
CN1C(=O)C2C(=O)N(Cc3ccccc3)CC(=O)N2c2cccnc21 (configuration not stated),> 100,–
CCc1c(Oc2ccc(C(C)=O)cc2)c2ccccc2[nH]c1=O,55.1,15.3
